{"source": "the supplement of paper PMC12632987", "binders": {"B1": {"name": "LC3A_3_1447 (protein)", "chain": "AEELREEALELLRERGASPETIAAAEELFDALIEKGYLEAMELVLEFLKEVKDASDEFLLETFKDLLELVLTSDDSPEEMKKKIEEELSAFRSELEIEEL"}, "B2": {"name": "LC3A_3_1508 (protein)", "chain": "KEELLKELREILEKMGASEEVIEAFLEAAERLLARGYEEAAKTFLELVKEMKDLSNEHLLAFAEEVLALLDAGGLSEEELIERIKEIARTTRADAEIEEL"}, "B3": {"name": "LC3A_141_365 (protein)", "chain": "MVVELKYEFEADTIEEAVEKMEEIEKDVLEKAKEANAKTAEIELKIEYTSKDGKEKKTIEIKDETTFENLELVLDGLLVEVASYASKGKVKVELKVKLKT"}, "B4": {"name": "LC3A_17_559 (protein)", "chain": "MEKLKKELEKLLKEAEKLIKELEKYDPEAAKELKELLEKAKKYLEEGKLKEALKTLKELAEKAADIWDSLEHIDPQKMSILSMEAEGLLIEAELLEDKLE"}, "B5": {"name": "LC3A_132_257 (protein)", "chain": "SEEKKKKFLEEAKALIDAVVAALKAGQDPSPYIKKLDELADRAAEELSLEELEELVEEAKAYADARFAEELDPNNPEARRARDIIEMILDSALIEAELRA"}, "B6": {"name": "LC3A_28_862 (protein)", "chain": "SATEESIKKAREELKEALAKGEPKVITVTVTEDVTDEEVDRVIALIDEAAEASKKVPGLALVIDFDGEIDPEKLQRILDRAEEAEARNPNLTVIFALDEK"}, "B7": {"name": "LC3A_3_1424 (protein)", "chain": "MEELEEEARRVLEEAGFSEEAIEAVLELVRKALEAGKEEEVKELIEVLKKAKNVSSEEVLEAAERALRLIEEEGVSMEEALEYFISELRVLIEEKEIIEL"}, "B8": {"name": "LC3A_28_1287 (protein)", "chain": "SEIEESIKKALEEAKKAVEKGESTVIEINVPGNATQEEIEKVIEALEEIAEILKDVPNQTIVINVGGGVPQEHIDKLLDKAEEIEKKYPNVTVIIALDEE"}, "B9": {"name": "LC3A_28_1133 (protein)", "chain": "SAAVAAAKAQIDADAAADKNEKEVFLTVNISGTVTVEEARAIMAHVAEVVEKLKDKERIDVVVNFEEPVSQEVLDTILDGGDELEEKFPNVNVYVALPEG"}, "B10": {"name": "LC3A_127_198 (protein)", "chain": "EEKELLEKLIELIEKAIEAVDQIKEKGQKARDEAIKLLKEALKLLEKIPELKESAEDLKQAIKLLEQLKDLSPAEQEEAIDHIKMLLDGVLIEVESKLLE"}, "B11": {"name": "LC3A_147_463 (protein)", "chain": "KLYEVTLDILVKDLTEEMKKDFEAMAEEIKKAVPNAKVELKFETDPEDPSETLVTLTVTVETEEDAEKVLDLVSEKMEEFEKKYSDQVIASMISREEIEL"}, "B12": {"name": "LC3A_78_2088 (protein)", "chain": "MVTIIIASSEETKKYAEEIAKKRTDADKVIVVLKEDLEKVLEEYKDEEEIEVIIVAKTEEEALELEEEVKKLLSDYKQSSIIEIDEETGIYTSHILAEKK"}, "B13": {"name": "LC3A_147_490 (protein)", "chain": "ARVDVDVLVKGKEAAEEIIEEVKKIVEEEKKKGVKVELEVKVEEIEPGIYYVEIKITVTAETPEEAMKAAREIEKKIDEIIEKNKERTLAALISIEEIER"}, "B14": {"name": "LC3A_17_548 (protein)", "chain": "MEELRKEIEELLKKLEELIKELKKYDPEAAKKLEKKAEEARKLLEEGKLREAAELLEEIARELSEVFDELEPKYGNEMSVKSMEASGLELEAIGILLKLE"}, "B15": {"name": "LC3A_28_1317 (protein)", "chain": "GSIEKELEKARKEAEEAAAKGEDILLEIKITGSTTVEEAEEMMEELEKIAKKYAPTHKISIIIDVDGSVSQEVIDLIAEKGEEIEEKYPNVTVIIALDEN"}, "B16": {"name": "LC3A_28_781 (protein)", "chain": "NALRENIERALEEARKAAERGEEVTLEITIPATATQEDIELVIKALEEIAELSEKMKSVSIVIDIEAGVPQEHIVLLSEKGDELSKRNPKVTVVFALEEP"}, "B17": {"name": "LC3A_free_46_2391 (protein)", "chain": "IEGEIDLLLKGATEEQVKELAEYAVEKIKELAEKKGINVEIEVEIEKLEDGDYYIKITVKSDSKDENKVLDILDETEEAIEEKAKELGIKVSSIISVSKK"}, "B18": {"name": "LC3A_free_46_2339 (protein)", "chain": "YKVEVTVDTLAAPKEKVEEFVEKLVKGAKEIAKELGGEIKIEVEFFENEDGTWSAEITIEIKVETEEKAKEAAEKLGKKIDELDEEYGIVGMVSIEIIKE"}, "B19": {"name": "LC3A_free_46_2302 (protein)", "chain": "YKAKIDIDIGGLNEEETKKLVEELVEEFKKIAEELGAEIEIEVEITTDEEGETFAKINITIKAKDKETLEKAVTKIIDKVDELVKKTGAAALISVEFEEE"}, "B20": {"name": "LC3A_147_457 (protein)", "chain": "KKYVISVDVLFRNDPALADEVEKKLEEIAKKYGGKVKVERQEEQVTPTTTEYFLHVDITFEDKEKAQKALDEVSALLDATAAAHPDSFVGSMISFDEEEE"}, "B21": {"name": "LC3A_3_1479 (protein)", "chain": "MAAERAATLAELRAAGASEETLAAVAAALDALEAKGYEGAARTFLEEMRRLAGEPDETLLAIAELALELVETESLSEEELSARIREIAEDVSGIEELDEE"}, "B22": {"name": "LC3A_132_267 (protein)", "chain": "SEELFEEALEELKEILDKIVDLLKAGKDPSPAITELYNTALEYSEKLSLEETEELVEKTIEYAEKLFAERLDPNDVEARRTLDIIEMLLEGVLIEKELRS"}, "B23": {"name": "LC3A_28_1027 (protein)", "chain": "SAAEKAIEKAREEARKQKAEGKDIYVTIEVTSSTTLEDAKTIVEGIREIVEEFKDEKNINIIIDVERGVSQEVIDTLADGAEEIEKEYPNVNIIIALEEE"}, "B24": {"name": "LC3A_127_186 (protein)", "chain": "EVEKLAEELIKKLEEAIDELDKPDPDKEKIKKLLEEAKKLAEELVKLDPRFKPVLEDIEKAIELFKQYLAAPPEEQEALREHLQMLLDGAIIEVESLLLK"}, "B25": {"name": "LC3A_3_1668 (protein)", "chain": "GEEKLKELLKWLKEEGKSEEVLEAVREALEALIEKGYFEAADTFIELMKEMKDLSDELLLDFANDVLELVKTEDIDEETLTKKIKEIARVIRLEEEIEEL"}, "B26": {"name": "LC3A_free_26_2147 (protein)", "chain": "SEYVDLYAIDEAEENLEEALKLLKELGNKNEELKKLLEEALKNVKKETLESLKKAEKNIKEAIKLVKEDKSLSEEDKKKLLELLEKALEKVEETIKIMES"}, "B27": {"name": "LC3A_13_342 (protein)", "chain": "TLRLEVETPEELRERGRALLEAHPGETIEIVVTVRDWEEAEAVARELAELIALAREKGSTLRITLRGPRSHVNYAAVLINSDILENGVDPNVTVTTEEVP"}, "B28": {"name": "LC3A_3_1655 (protein)", "chain": "MEELIEKTLEYLKKKGKSEEVLEAVRKALEALKEKGYEEAMKTFAELLKELEDLSDEILLAFAEDVLELAETEDIDEETMTEKIKEIAKTARNEAEIEEL"}, "B29": {"name": "LC3A_28_659 (protein)", "chain": "SKTRKSIEEAIKKAKEAKEKGEPAVITVTVTGDATEEDIDYVIEGLEEIAEILSSIPGSAIIIDLEAGVKEEFRDRIIDKAEELEKKYPNVTVIIAEEEE"}}, "note": "The full ranking holds about 2,300 sequences; the median of “median log2 fold change of GCK-ALFA target abundance (FLAG IP / Myc IP barcode read proportion)” is about 0.095, and the lowest 2% start at about -0.47. The list shows a part of the results."}
{"molecular_target": "MAP1LC3A, Q9H492", "assay": "median log2 fold change of GCK-ALFA target abundance (FLAG IP / Myc IP barcode read proportion) (log2 ratio); each designed protein is fused to an ALFA-tag nanobody in HEK293 cells to bring the named protein to FLAG-tagged glucokinase (GCK); Myc marks an untargeted standard; higher = target protein stabilised (more abundant)", "conditions": "target protein: 3xFLAG-MCP-GCK-ALFA reporter; HEK293 landing pad (RPLP)", "how_it_was_run": "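Sequencing of reverse-transcribed, amplified circular RNA barcodes from anti-FLAG and anti-Myc immunoprecipitates provided the readout for an ALFA-nanobody-fused binder library recombined into HEK293 landing-pad cells. Those cells were induced with 2 μg mL^−1 doxycycline, transfected with a plasmid expressing a FLAG-tagged target and a Myc-tagged standard, and lysed after 48 h. Target abundance is the per-binder median log2 ratio of FLAG to Myc barcode read proportions. Only barcodes at a proportion of ≥10^−7 in both replicates and binders with ≥3 barcodes per replicate were kept, with a 10^−6 pseudocount added before the two replicates were pooled.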"}
{"binder": "B1", "median log2 fold change": 0.173}
{"binder": "B2", "median log2 fold change": 0.339}
{"binder": "B3", "median log2 fold change": 0.379}
{"binder": "B4", "median log2 fold change": 0.00231}
{"binder": "B5", "median log2 fold change": 0.39}
{"binder": "B6", "median log2 fold change": "-8.58e-05"}
{"binder": "B7", "median log2 fold change": 0.16}
{"binder": "B8", "median log2 fold change": -0.0742}
{"binder": "B9", "median log2 fold change": -0.076}
{"binder": "B10", "median log2 fold change": 0.256}
{"binder": "B11", "median log2 fold change": -0.0531}
{"binder": "B12", "median log2 fold change": 0.188}
{"binder": "B13", "median log2 fold change": 0.103}
{"binder": "B14", "median log2 fold change": 0.204}
{"binder": "B15", "median log2 fold change": 0.146}
{"binder": "B16", "median log2 fold change": 0.149}
{"binder": "B17", "median log2 fold change": -0.0207}
{"binder": "B18", "median log2 fold change": 0.182}
{"binder": "B19", "median log2 fold change": -0.169}
{"binder": "B20", "median log2 fold change": 0.352}
{"binder": "B21", "median log2 fold change": 0.281}
{"binder": "B22", "median log2 fold change": -0.528}
{"binder": "B23", "median log2 fold change": 0.173}
{"binder": "B24", "median log2 fold change": 0.0193}
{"binder": "B25", "median log2 fold change": 0.133}
{"binder": "B26", "median log2 fold change": -0.135}
{"binder": "B27", "median log2 fold change": 0.255}
{"binder": "B28", "median log2 fold change": 0.204}
{"binder": "B29", "median log2 fold change": -0.0944}
